Laboratory results as given in PMC12136788.
The list shows a part of the results.

T1: UNK ZnF1-6 (called full-length) (human, UniProt Q9C0B0 30-357)
T1 sequence: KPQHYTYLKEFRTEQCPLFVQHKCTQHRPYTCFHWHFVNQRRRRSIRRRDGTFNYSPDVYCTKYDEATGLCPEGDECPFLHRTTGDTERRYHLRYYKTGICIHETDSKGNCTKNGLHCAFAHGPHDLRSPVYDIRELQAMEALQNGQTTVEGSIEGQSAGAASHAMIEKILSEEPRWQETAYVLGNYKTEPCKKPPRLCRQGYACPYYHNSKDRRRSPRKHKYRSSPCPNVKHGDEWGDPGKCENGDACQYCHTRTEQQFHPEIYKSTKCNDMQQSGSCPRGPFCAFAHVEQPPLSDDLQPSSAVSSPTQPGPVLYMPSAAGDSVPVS

B1: chr17:44352837:44352938:+|3pUTR|ENSG00000030582|unk|FALSE|unique (ssRNA)
RNA: GGGAGUUCUACAGUCCGACGAUCCUGAAGACUCUGCAGCCCUCGGGACCCCACUCGGAGGGUGCCCUCUGCUCAGGCCUCCCUAGCACCUCCCCCUAACCAAAUUCUCCCUGGACCCCAUUCUGAGCUCCCCAUCACCAUGGGCAACAGAGGAUUGAGCAUCA
B2: chr6:113953301:113953428:-|CDS|ENSG00000196591|unk|total|mutant (ssRNA)
RNA: GGGAGUUCUACAGUCCGACGAUCAAAAACCAAAACUUAUGGAUUUGUUUUCAGGUAUCAUCAGAGAGUCUUAUAUAUUGAUACCGAUAUUCAUCAUGGUGAUGGUGUUGAAGAAGCUUUUUAUACAACAGAUCGUGUAAUGACCAACAGAGGAUUGAGCAUCA
B3: chr13:45957189:45957298:-|CDS|ENSG00000123200|unk|FALSE|unique (ssRNA)
RNA: GGGAGUUCUACAGUCCGACGAUCUGUUUUUGUUUUCUUCAAAUAGGGCACCAUAAAACAAGCUUACACGAGUGCUCCAAUGGUAGACAAUGAAUUACUUCGAUUGAGUCUUCGGUUAUUUAAGCGGAAGACUACUUGCCAUGCCAACAGAGGAUUGAGCAUCA
B4: chr5:138184526:138184629:+|CDS|ENSG00000112984|unk|FALSE|unique (ssRNA)
RNA: GGGAGUUCUACAGUCCGACGAUCGUGCAUGCCCCACCUAUGCAACUGGGAUUCCCAUCCCUGCACUCGUUCAUCAAGGAACAUAGUCUUCAGGUAUCCCCCAGCUUAGAGAAAGGGGCUAAGGCAGACACAGGCCUUGAUGAUCAACAGAGGAUUGAGCAUCA
B5: ENSG00000093010:stop:overlap|stop_codon|ENSG00000093010|stop_codon|NA|stop_codon (ssRNA)
RNA: GGGAGUUCUACAGUCCGACGAUCGCUGCUGCCCAGAGCCCAUUCAGUCAGCCUCAGCCUCUCCAAAGAGCCAGGCAUUCCAGUAGAGCCCUGUGUGGACACAGCUCGCUCUGGAGGCACCACCUGAGGUCUGGGAGUGUGGGGCAACAGAGGAUUGAGCAUCA
B6: chr1:150648406:150648517:-|CDS|ENSG00000143457|unk|FALSE|unique (ssRNA)
RNA: GGGAGUUCUACAGUCCGACGAUCUCAGCGUAUGGACAAGCGAACACUAGCACUCCUGGUGCUAGCCCACUCCUCUGAUGUGCUAGAGAAUGUCUUCUCCUCUCUGACAGAUGACAAGUAUGAUGUGGCAAUGAAUCGAGCCAACAACAGAGGAUUGAGCAUCA
B7: chr12:46358264:46358384:-|3pUTR|ENSG00000134294|msi1|total|mutant (ssRNA)
RNA: GGGAGUUCUACAGUCCGACGAUCAAUGUGAUCCCGUGUAAUGGAAGACCUUUGAGAACCUGGGUGUAUUAACUUUGUGUAUACCGUGUAAAUAUCCCCACUGUACUGUCCGAGGCCAACAAUUCCCGUAUGGCUUGUUGGCAACAACAGAGGAUUGAGCAUCA
B8: ENSG00000134323:stop:overlap|stop_codon|ENSG00000134323|stop_codon|NA|stop_codon (ssRNA)
RNA: GGGAGUUCUACAGUCCGACGAUCAAAAAUUGCAGGCAAGACAGCAGCAGUUGCUAAAGAAAAUUGAACACGCUCGGACUUGCUAGACGCUUCUCAAAACUGGACAGUCACUGCCACUUUGCACAUUUUGAUUUUUUUUUUAAACAACAGAGGAUUGAGCAUCA
B9: chr4:189940876:189940977:+|5pUTR|ENSG00000109536|unk|total|mutant (ssRNA)
RNA: GGGAGUUCUACAGUCCGACGAUCAGUGGAACUCUGAGCCAUUCAGCGUUUGGGUGAAGACGGAGGCGGGUUCUACAGAGACGCCGGCUGUCAGGGAGUGUUUAUUUCGCGUCCGCUUCUGUUUCUCCGCGCCCCUGUGCUGCCCAACAGAGGAUUGAGCAUCA
B10: chr19:35555165:35555334:-|CDS|ENSG00000105675|control|control|control (ssRNA)
RNA: GGGAGUUCUACAGUCCGACGAUCGGCCGUCACGGGGGAUGGUGUGAAUGACUCCCCAGCUCUGAAGAAGGCAGACAUCGGAGUAGCCAUGGGCAUCGCUGGCUCAGAUGCUGCCAAAAAUGCAGCUGACAUGAUCCUGCUGGACAACAGAGGAUUGAGCAUCA
B11: chr4:102797111:102797208:-|3pUTR|ENSG00000109332|msi1_unk|total|mutant (ssRNA)
RNA: GGGAGUUCUACAGUCCGACGAUCUCUGAGAAGACUUAAGUUCUUCCAGCUUUGGACAAUAACUGCUUUCCGAAACUGUAAAGCCGUUACAAGAGAACAGUUGCCCAAGACUCAGAAUUUUUAAAAAAAAAAAUGGAGCAUGUGCAACAGAGGAUUGAGCAUCA
B12: chr11:119418629:119418730:-|3pUTR|ENSG00000154096|msi1|FALSE|unique (ssRNA)
RNA: GGGAGUUCUACAGUCCGACGAUCCCUCAGAGGCCUUGGGGCAUGACCCAGUGAAGAUGCAGGUUUGACCAGGAAAGCAGCGCUAGUGGAGGGUUGGAGAAGGAGGUAAAGGAUGAGGGUUCAUCAUCCCUCCCUGCCUAAGGACAACAGAGGAUUGAGCAUCA
B13: ENSG00000164574:stop:overlap|stop_codon|ENSG00000164574|stop_codon|NA|stop_codon (ssRNA)
RNA: GGGAGUUCUACAGUCCGACGAUCUCGACGACUUCAGUGAUCGAGAUCUGCCGACUGCAUCAACUCCCUCUCCCUUUGUGUGCUAGAGACCCUUCAGCAUACGCAGCUCUGGGAUGAUGCCAGGAUUCCAUUUGGAGACUUCUGCAACAGAGGAUUGAGCAUCA
B14: chr11:110579372:110581225:-|CDS|ENSG00000137727|control|control|control (ssRNA)
RNA: GGGAGUUCUACAGUCCGACGAUCUAGUCAGAGCUCUUCUGGUUCUCUGCCUUGGGAAAGAGCCUCAGCCAGCUCUUGGACUCUAGAGGAUGCGACCAGCCCAGACUCAGGGCCUACAGUGGUCUGCGACAUUGAGGACAGGUACAACAGAGGAUUGAGCAUCA

What follows are binders tested against T1, UNK ZnF1-6 (called full-length) (assay: nsRBNS (natural sequence RNA bind-n-seq); RBNS binding buffer (assumed for nsRBNS): 25 mM Tris pH 7.5, 150 mM KCl, 3 mM MgCl2, 0.01% Triton X-100, 500 ug/ml BSA, 20 U/ml SUPERase-In, 4 C; UNK is unkempt and MSI1 is Musashi-1; names of the RNAs are library labels; protein concentration not given here; high values mean tight binding).
With B1 the binding signal was 0.792 enrichment R.
In the case of B2, the binding signal is reported as 0.597 enrichment R.
Binder B3 has a binding signal of 0.249 enrichment R.
With B4 the binding signal was 0.529 enrichment R.
B5 showed a binding signal of 0.77 enrichment R.
B6 gave a binding signal of 0.467 enrichment R.
For B7, the binding signal was 0.377 enrichment R.
B8 showed a binding signal of 0.401 enrichment R.
B9 was tested, and the binding signal was 0.866 enrichment R.
B10 showed a binding signal of 0.735 enrichment R.
In the case of B11, the binding signal is reported as 0.275 enrichment R.
B12 was tested, and the binding signal was 0.86 enrichment R.
For B13, the binding signal was 0.708 enrichment R.
Work on B14 yielded a binding signal of 0.616 enrichment R.
